Variants at the background level are over-represented here.

First the molecules themselves.
B1: tRNA (parent)
chain: CUCUCGGUAGCCAAGUUGGUUUAAGGCGCAAGACUUUAAUUUAUCACUACGAAAUCUUGAGAUCGGGCGUUCGACUCGCCCCCGGGAGAUUUUUUCCUCGAGCAA

This data set covers variants of B1. Kind of data set: nonsense suppression (GFP-seq) (ratio to wild type); higher = more function; SUP4oc tRNA, yeast GFP reporter sort-seq. The method, boiled down:
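Yeast were grown in raffinose/galactose medium with 80 mg/L adenine, each strain bearing a genome-integrated ochre-suppressor tRNA variant from a ~3% random-mutation library, a galactose-driven GFP ochre reporter, and RFP. After sorting into GFP/RFP bins, every bin was sequenced on an Illumina platform at phred ≥30. The GFPSEQ value, a measure of nonsense suppression, is the weighted bin median GFP/RFP relative to the unmutated parent tRNA, using each variant's estimated cell share per bin as the weight. Only variants with ≥100 reads and ≥30 cells were included.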
As for A24C G28C A30G, the nonsense suppression is at most 0.026.

Regarding A9U U21C U55A, the nonsense suppression was at most 0.026.

C5U A60C C83A: the nonsense suppression is at most 0.026.

With U16C U57C U58C C68U U70C C79G G86U, the nonsense suppression was at most 0.026.

Take C56G G69C: the nonsense suppression was at most 0.026.

As for C5U A13G U20C A24G, the nonsense suppression was at most 0.026.

Regarding U2A A14U A30U C34G C81A, the nonsense suppression was at most 0.026.

For the variant C12U G15C U71G, the nonsense suppression was at most 0.026.

For the variant C34G C75A, the nonsense suppression was at most 0.026.

Consider C12U G69C, for which the nonsense suppression was at most 0.026.

In the case of A54C G73C, the nonsense suppression came out at 0.0591.

As for G7U G15A U35C A54G, the nonsense suppression is at most 0.026.

For the variant G15U U76C, the nonsense suppression is at most 0.026.

Consider G28A G84A, for which the nonsense suppression was at most 0.026.

On to C3A U16G G59A, for which the nonsense suppression is at most 0.026.

In the case of U20A C34A U58G G61A, the nonsense suppression was at most 0.026.

With A23G G28A G65A, the nonsense suppression is at most 0.026.

As to C11U G15U A24U A89C, the nonsense suppression is at most 0.026.

Turning to G19U A24G G78C A89C, the nonsense suppression is at most 0.026.

Regarding C56A G73A, the nonsense suppression is at most 0.026.

G19U G66C: the nonsense suppression is at most 0.026.

Take G67U G85C: the nonsense suppression was at most 0.026.

For C1A A33U C68U, the nonsense suppression was at most 0.026.

Regarding G10U U70C C82G, the nonsense suppression was at most 0.026.

Consider C27U C56G, for which the nonsense suppression was at most 0.026.

Take G32C G59C: the nonsense suppression was at most 0.026.

For C12G U17C A87C, the nonsense suppression was at most 0.026.

As for C11G C68U G85U, the nonsense suppression was at most 0.026.

With C3U U22G A23U G78A, the nonsense suppression is at most 0.026.

A33G U57C C81U: the nonsense suppression was at most 0.026.

On to G7C U58G U63C, for which the nonsense suppression is at most 0.026.

As to U35G G86C A87U, the nonsense suppression is at most 0.026.

In the case of A24G A54U, the nonsense suppression worked out at 0.0262.

Turning to C12U C27G U35G, the nonsense suppression is at most 0.026.

For the variant U16C U20C A23U C29U A31G, the nonsense suppression was at most 0.026.

For the variant A24G G67A U70G, the nonsense suppression was at most 0.026.

Take A13U A62C: the nonsense suppression worked out at 0.029.

With G19C U58C C64A, the nonsense suppression was at most 0.026.

With G61U U71C A87U, the nonsense suppression is at most 0.026.

As for A31C G32A U57C C79A, the nonsense suppression is at most 0.026.

For the variant C3U U57C G69A G73A G85A, the nonsense suppression was at most 0.026.

For U8C U58G G85A, the nonsense suppression is at most 0.026.

In the case of C12A A62C U63C G73U, the nonsense suppression was at most 0.026.

With C27U G73A, the nonsense suppression was at most 0.026.

As to A31U G61U, the nonsense suppression stood at 0.0345.

G25U G28U G65C: the nonsense suppression was at most 0.026.

Consider A14G C29G, for which the nonsense suppression was at most 0.026.

As to C3A G26C, the nonsense suppression is at most 0.026.

As for C3U C12U U70C, the nonsense suppression is at most 0.026.

In the case of C12U C80G, the nonsense suppression was at most 0.026.

As for U2C G61C, the nonsense suppression turned out to be 0.0279.

As to G7A A23G C75A, the nonsense suppression was at most 0.026.

For the variant C12G A31U A33U U58G, the nonsense suppression is at most 0.026.

In the case of U2G C3G A14C C56U, the nonsense suppression is at most 0.026.

Consider C56U G59C G65U, for which the nonsense suppression was at most 0.026.

As for A13G G18U A23U A24G C27U A31G C83G, the nonsense suppression was at most 0.026.

Turning to A14C G26C A62C C82U, the nonsense suppression is at most 0.026.

In the case of C3U A23C G32C C68G, the nonsense suppression was at most 0.026.

With A62C C83G, the nonsense suppression is at most 0.026.

With U20G G28C U55C A74U, the nonsense suppression was at most 0.026.

Turning to U2A G32U U35G, the nonsense suppression was at most 0.026.

U8A G32C G61C A62C U63A G78A: the nonsense suppression is at most 0.026.

On to U22C A33C G78A A89U, for which the nonsense suppression was at most 0.026.

Consider U16G C34G, for which the nonsense suppression was at most 0.026.

As to A23G C34G G66U A87U, the nonsense suppression is at most 0.026.

Turning to U8A C29A A30U U55A G59A, the nonsense suppression is at most 0.026.

For A62C C81G, the nonsense suppression is at most 0.026.

Consider A30C C56G C83G G86U, for which the nonsense suppression is at most 0.026.

With C3U U21G G25U G69U A74G, the nonsense suppression was at most 0.026.

Regarding C11U G59U, the nonsense suppression is at most 0.026.

Regarding G66C G67C U71C U76A C77G, the nonsense suppression was at most 0.026.

As to C11U C68U, the nonsense suppression was at most 0.026.

In the case of C1U U2C C12G G26U G65A G67A U70C, the nonsense suppression was at most 0.026.

Consider C3A A13U, for which the nonsense suppression was determined as 0.0379.

With G18U G19U G66C G78U C79G, the nonsense suppression is at most 0.026.

Take C5A G59C: the nonsense suppression is at most 0.026.

Take A24U G61C C75G: the nonsense suppression was at most 0.026.

Regarding C56G U58G U71G C77U, the nonsense suppression was at most 0.026.

Regarding A23G A31G, the nonsense suppression stood at 0.0446.

On to U17A G66U A89G, for which the nonsense suppression is at most 0.026.

With C34A G61A, the nonsense suppression was at most 0.026.

In the case of G10U A74G G88U, the nonsense suppression was at most 0.026.

Take C11A G18C U22A: the nonsense suppression was at most 0.026.

On to G66C G84C, for which the nonsense suppression was at most 0.026.

For G19U A54C U63A, the nonsense suppression was at most 0.026.

For C82U, the nonsense suppression came to 1.05.

Take U8A U17G A30G G59U U71A U76C: the nonsense suppression was at most 0.026.

For G28A G32C, the nonsense suppression is at most 0.026.

Turning to G69C A74C G86U, the nonsense suppression was at most 0.026.

U16G A54C G66U C79A G85U: the nonsense suppression was at most 0.026.

Turning to C11U A60G G69U G84A, the nonsense suppression is at most 0.026.

For A23C U70A G84U, the nonsense suppression was at most 0.026.

Take C72G G84C G86A: the nonsense suppression is at most 0.026.

For A33U U58G A62U C81U G86C, the nonsense suppression was at most 0.026.

Regarding G59A A62U C75A, the nonsense suppression is at most 0.026.

Consider U21G U70C, for which the nonsense suppression is at most 0.026.

For A13C G32C A33C G88C, the nonsense suppression was at most 0.026.

G69U C83A: the nonsense suppression was at most 0.026.

On to G65C G69U, for which the nonsense suppression is at most 0.026.

U2A G6C G19C A24C C27G: the nonsense suppression was at most 0.026.

As for U55G G66A C81A, the nonsense suppression is at most 0.026.

As to G15A C79G C83G G84U, the nonsense suppression is at most 0.026.

As for G6U C34U C72A, the nonsense suppression is at most 0.026.

For U55A G66A, the nonsense suppression was at most 0.026.

As for C5A U71G A74U, the nonsense suppression is at most 0.026.

As for G7U C12A G19U U35G G69C G84A, the nonsense suppression was at most 0.026.

For G7C A24G, the nonsense suppression was at most 0.026.

As for C1G U57G A60G U71A U76G, the nonsense suppression is at most 0.026.

With C12U G78U G84C, the nonsense suppression was at most 0.026.

A24U C27U A33G: the nonsense suppression is at most 0.026.

For A31C C64U, the nonsense suppression is at most 0.026.

As for U20C C29U A31G, the nonsense suppression is at most 0.026.

Turning to U2G C11G U17G A62U, the nonsense suppression was at most 0.026.

On to C5G A23G A33U, for which the nonsense suppression is at most 0.026.

On to U22G C34U U35A, for which the nonsense suppression was at most 0.026.

With A31G U70A C77G, the nonsense suppression was at most 0.026.

C3U A24U C79U: the nonsense suppression is at most 0.026.

For G61A A62U A87G, the nonsense suppression was at most 0.026.

Take C68A U70G: the nonsense suppression is at most 0.026.

Take G15A A24G C29G A54G: the nonsense suppression is at most 0.026.

Take A23U A33G: the nonsense suppression was at most 0.026.

For the variant G59C G66A C79G, the nonsense suppression is at most 0.026.

As for U16G A30C, the nonsense suppression was at most 0.026.

Regarding C3U G7A U20C G61U, the nonsense suppression was at most 0.026.

For the variant C5U G26C A31U C34A, the nonsense suppression was at most 0.026.

Regarding G19A A60U A89G, the nonsense suppression is at most 0.026.

As for A23G U55C G66C, the nonsense suppression is at most 0.026.

Take G69U C80A: the nonsense suppression is at most 0.026.

With C11U A24G, the nonsense suppression was at most 0.026.

As for C1A G26C, the nonsense suppression was at most 0.026.

Consider C3U G67C, for which the nonsense suppression is at most 0.026.

C3U G85A: the nonsense suppression is 0.528.

For G10U A60G, the nonsense suppression was at most 0.026.

Regarding A9G A30C, the nonsense suppression was at most 0.026.

For G85A G86C, the nonsense suppression is at most 0.026.

In the case of G18A C75U U76G, the nonsense suppression is at most 0.026.

As for C5A C68A, the nonsense suppression was at most 0.026.

Turning to A13G C83A, the nonsense suppression was at most 0.026.

Regarding A9G G59C C83U, the nonsense suppression was at most 0.026.

A30G A54U: the nonsense suppression worked out at 1.2.

On to U2A A9U U16C C56U, for which the nonsense suppression is at most 0.026.

For G59A G61A A87C, the nonsense suppression is at most 0.026.

On to A13U U21A, for which the nonsense suppression is 0.803.

Take U35G G66A: the nonsense suppression is at most 0.026.

Consider C11A G25C, for which the nonsense suppression is at most 0.026.

For the variant U4A A23U, the nonsense suppression is at most 0.026.

As to A9C G66A C79U, the nonsense suppression is at most 0.026.

In the case of C27G A87U, the nonsense suppression was at most 0.026.

On to C11G A23G U58A G65C, for which the nonsense suppression was at most 0.026.

Take G10U G18C A24U A33G: the nonsense suppression was at most 0.026.

In the case of G15U A30G, the nonsense suppression was at most 0.026.

With A13C A89U, the nonsense suppression was at most 0.026.

On to A9C C34A U57C, for which the nonsense suppression was at most 0.026.

With C12A G69C, the nonsense suppression is at most 0.026.

For G7A G59U, the nonsense suppression was at most 0.026.

Turning to A9U C12A G19C, the nonsense suppression is at most 0.026.

Consider G15U U20A C29G, for which the nonsense suppression was at most 0.026.

In the case of U2A G19C, the nonsense suppression was at most 0.026.

Consider C77A C79U, for which the nonsense suppression is at most 0.026.

In the case of C3U C27G C80G G84C, the nonsense suppression was at most 0.026.

Turning to A30U G85A, the nonsense suppression is 0.52.

As for C11G A13C C80U, the nonsense suppression is at most 0.026.

On to A33U U76C, for which the nonsense suppression is at most 0.026.

Turning to A14U G19U A24G G61C, the nonsense suppression was at most 0.026.

For G66C U70C, the nonsense suppression is at most 0.026.

With C5U C27U G67U, the nonsense suppression is at most 0.026.

Regarding C5A G6C C56U U76A, the nonsense suppression was at most 0.026.
